B1: LINE1-mini (parent)
chain: GGCAGAGCUCAACACAGCGUGGCAAAGUGGCUGUGGCUAGACUGCC

The source gives no read counts; variants with many changes may rest on few reads.

The variants in the data set derive from B1. Kind of data set: self-cleavage, relative activity (ratio to wild type); higher = more cleavage; in vitro, sequencing; the parent is a self-cleaving ribozyme.
Regarding GGCAGAACUCAACACAGCUUGGCAAAGUGUCUGUGGCUCGACUGCC, the self-cleavage was found to be 1.22.
As for GGCAGAACUCAACACAGCAUGGCAAAGUGUCUGUGGCUAGACUGCC, the self-cleavage turned out to be 0.11.
Under GGCAGAACUCAACACAGCGUGGCAAAGUAGCUGUGGAUAGACAGCC stands 0.72; under GGCAGAACUCAACACAGCCAGGCAAAGUGGCGGUGGCUAGAGUGCC, 0.02; under GGCAGAACUCAACACAACGUGGCAAUGUGGUUUUGGCUAGACUUCC, 0.21.
The figure for GGCAGAACUCAACACAGCGUCGCAAAGUGGCUGUGGCUAGACUGUC is 0.05; for GGCAGAACUCAACACAGCGUGGCAAAGUCGCUGUGGCUACACUGCC it is 0.08; for GGCAGAACUCAACACACCGUGACAACAUGGCUGUGAGUAGACUGCC it is 0.02.
Under GGCAGAACUCAACACAGCGUGGUAAAGUGGCUGUGGCUAUACUGCC stands 0.23; under GGCAGAACUCAACACAACGUGCCAAAGUAGCUGUGGCUAGACUGCC, 0.11; under GGCAGAACUCAACACAGCGUCGCAAAGUGGCUGUUGCUAAUCUGCC, 0.21.
For the variant GGCAGAACUCAACACAGCGUCGCAAAGUGGCUGCGGCUAGACUGCC, the self-cleavage came to 0.09.
The figure for GGCAGAACUCAACACAGCCUGGCAAAAUGGCUGUGGCUAGACUGCC is 0.04.
The figure for GGCAGAACUCAACACAGCCUGGCAAAUUGGCUGUGGCUAGACUGCC is 0.04.
For GGCAGAACUCAACACACCGGGGCAAAGUGGCUGUGGGUAGACUGCC, the self-cleavage is 0.05.
The figure for GGCAGAACUCAACACACCGUCGCAAAGUGGGUGUGGCUAGACUGCC is 0.01.
The figure for GGCAGAACUCAACACAGCGUGGCAAAGUGGCUGUGGCUAUCCUGCC is 0.73.
With GGCAGAACUCAACACAGCGUGCCAAUGUGGCUGUGGCUAGACUGCC, the self-cleavage was determined as 0.3.
Under GGCAGAACUCAACACAGCGUGGCAAAGUGGCUUUGGCUAGACUUCC stands 0.1; under GGCAGAACUCAACACAGCGUCGCAAAGUGGCUGUCGCUAGACUGCC, 0.04; under GGCAGAACUCAACACAGCGUGGCAAAGUCGCUAUGGCUAGACUGCC, 0.14.
The figure for GGCAGAACUCAACACAGCGUUGCAAAUUGGCUGUGGCUAGACUGCC is 0.1; for GGCAGAACUCAACACAGCGUGGCAAAGUGGCUGUGUCAAGACUGCC it is 0.02.
Under GGCAGAACUCAACACAGCGUGGUAAAAUGGCUGUGGCUACACUGCC stands 0.3; under GGCAGAACUCAACACAGCGUGGCAAAGUGGCUCAGGCUAGAUUGCC, 0.13; under GGCAGAACUCAACACAGCGUGACAAAGUGGCUGUGGCUAAACUGCC, 0.09.
For GGCAGAACUCAACACACCGUGGCAAAGUGGCUGUGGCCAGACUGCC, the self-cleavage was found to be 0.11.
Under GGCAGAACUCAACACAGCCUGGCAAAGUGGCUGUGGCUAGACUGCA stands 0.25; under GGCAGAACUCAACACAGCGUGGCAAAGUGGCUGUAGCUAGACUGGC, 0.18; under GGCAGAACUCAACACAGCUUGACAAAGUGGCUAUGGCUAGGCUGAC, 0.22.
The figure for GGCAGAACUCAACACAGCGUGGCAAAGUGGCUGUAGCUAGACUACC is 0.12; for GGCAGAACUCAACACAGCGUCGCAAAGUGGCUGUGGCUAGACUGCA it is 0.04.
With GGCAGAACUCAACACAGCGUGGCAAAGUUGCUGUGGCUAGACUUCC, the self-cleavage came out at 0.16.
Under GGCAGAACUCAACACAUCGUGGCAAAGUGGCUGUGGCUCGACUGCC stands 0.01; under GGCAGAACUCAACACAUCGUGGCAAAGUGGCUGUGGCUAAACUGCC, 0.06.
Under GGCAGAACUCAACACAGCGUUGCAAAGUGGCUGUGGCUAGCGUGCC stands 0.05; under GGCAGAACUCAACACAGCGUGGCAAAGUGGCUGUGGCUAGACUACA, 0.7; under GGCAGAACUCAACACAGCGUGGCAAAGUUGCUGUGGCUGGACUGCC, 0.08.
Under GGCAGAACUCAACACAGCGUGGCAAAGUGGGUGUGGCUAGACAGCC stands 0.09; under GGCAGAACUCAACACAGCGUUGCAAAAUGGCUGUGGCAAGACUUCC, 0.05.
For the variant GGCAGAACUCAACACAGCGUGGCAAAGUGGAUGUGGCUAGACUGGC, the self-cleavage amounted to 0.21.
The figure for GGCAGAACUCAACACACCGUGGCUAAGGGGCUGUGGCUAGACUGCC is 0.15; for GGCAGAACUCAACACAGCGUGGCAAAGUGUCUGUGGCGAGACUGCC it is 0.01; for GGCAGAACUCAACACAGCGUGGCAAAGUGGUUGUGGUUAGACUGCC it is 0.04.
For the variant GGCAGAACUCAACACAGCGUGCCAAAGUGGCUGUGGCUAGGCUGCC, the self-cleavage was 0.25.
The figure for GGCAGAACUCAACACAGCGUGGCAAAUUGGCUGUCGCUAGACUGCC is 0.15; for GGCAGAACUCAACACAGCGUGGCAAAGUUGAUGUGGCUAGGCUGCC it is 0.15; for GGCAGAACUCAACACAGCGUCGCAAAGUGGCUGUGGUUAGACUGAC it is 0.04.
The figure for GGCAGAACUCAACACAGCGUGGAAUAGUGGCUGUGGCUAAACUGCC is 0.46.
Under GGCAGAACUCAACACAGCUUGGGAAAGUGGCUGUGGCUAUACUGCU stands 0.06; under GGCAGAACUCAACACAGCGUGGUAAAGUGGCUUUGGCUAGACUGCC, 0.06; under GGCAGAACUCAACACAGCAUGGCAAAGUGGCUGUGGCUAGACUACC, 0.61.
Turning to GGCAGAACUCAACACAGCGUUGCAAAGUCGCUGUGGCUGGACUGCC, the self-cleavage turned out to be 0.01.
The figure for GGCAGAACUCAACACAGCGUGGCAAAGUAGAUGUGGCUAGAAUGCC is 0.28.
As for GGCAGAACUCAACACAGCGUGGCAAAGUGGCUGUUGUUAGACUGCC, the self-cleavage was determined as 0.01.
The figure for GGCAGAACUCAACACAGCGUGACAAAGUGGUAGUGGCUAGACUGCC is 0.01.
Consider GGCAGAACUCAACACAGCGUGGCAAAGUGGCUGUGGCUACACAGGU, for which the self-cleavage is 0.01.
Under GGCAGAACUCAACACAGCUUGGCAAAGUGGCUGUGGGUAGACUGCC stands 0.03; under GGCAGAACUCAACACAGCGUGGCAAAAUGGCUGUGGUUAGAAUGCC, 0.03.
The figure for GGCAGAACUCAACACAGCAUGGCAAAGUGGCUGUGGCUGGACUGCC is 0.09.
As to GGCAGAACUCAACACAGCGUGGUAGAGUGGCUGUGGCUAGACUGCC, the self-cleavage was found to be 0.13.
Under GGCAGAACUCAACACAGCGUGGCAAAGUGGCUGUGGAUACACUGCC stands 0.12.
Under GGCAGAACUCAACACAGCGUGGCAAAGUACCUGUGGCAAGACUGCC stands 0.06; under GGCAGAACUCAACACAGCGUUGCAAAGCGGCUGUGGCUAGACUGUC, 0.12; under GGCAGAACACCACACAGCGUGGCAAAGUGAAUGUGGCUAGACUGCC, 0.02.
Turning to GGCAGAACUCAACACAGCGUGGCAAAGUGACUGUGGCUAUCCUGCC, the self-cleavage was found to be 0.11.
Take GGCAGAACUCAACACAGCCCGGCACAGUGGCUGUGGCUAGAUUGCC: the self-cleavage was 0.04.
Under GGCAGAACUCAACACAGCGUGGCAAAGUGGAUCUGGCUAGACUGCC stands 0.28.
The figure for GGCAGAACUCAACACAGCGUGGCAAAGUUACUGUGGCUAGACUGAA is 0.21.
Under GGCAGAACUCAACACAGCGUGCCAAAGCGGCUGUGGCUAGACUGCC stands 0.01; under GGCAGAACUCAACACAGCGUGGCAAAGUGGCUGUGGUUAUACUGCC, 0.1; under GGCAGAACUCAACACAGCGUGGCAAAGUGGCUCUGGCUAGACUACC, 0.04.
Turning to GGCAGAACUCAACACAGCGUGGUAAAGUGGCUGUGGCGAUACUGCC, the self-cleavage worked out at 0.01.
The figure for GGCAGAACUCAACACAGCGUUGCGAAGUUGCUGUGGCUAGACUGGC is 0.06.
Under GGCAGAACUCAACACAGCGUUUCAAAGUGGCAGUGGCUAGGCUGCC stands 0.06.
The figure for GGCAGAACUCAACACAGCGUGACACUGUGGCUGUGGCUAGACUGCC is 0.27; for GGCAGAACUCAACACAGUGUGGCAAAGUGGCUGGGGCUAGACUGCC it is 0.04.
In the case of GGCAGAACUCAACACAGCGUCGAAAAGUGGUCGGGUCUAGACUGCC, the self-cleavage came to 0.14.
The figure for GGCAGAACUCAACACAGCUUGGCCAAGUGGCUGUGGCUAGACUGCC is 0.1.
Under GGCAGAACUCAACACAGCGUAGCAAAGUGGGUGUGCCUAGUCUGCC stands 0.04.
The figure for GGCAGAACUCAACACAGCGUUGCAAAGUGGCUGUGGCGAUACUGCC is 0.01.
For the variant GGCAGAACUCAACACAGCGUGUCAAAGUGGCUGUGGCUACACUGCC, the self-cleavage was 0.35.
Turning to GGCAGAACUCAACACAGCGUGGCAAAGUUGUUGUGGCUAGACUGCC, the self-cleavage was found to be 0.07.
Under GGCAGAACUCAACACAUCGUGGCAGAGUGGCUGUGGCUAGACUGCC stands 0.04; under GGCAGAACUCAACACAACGUCGCAAAGUGGCUGUGGCUAGACUGCC, 0.42; under GGCAGAACUCAACACAGCGUCGCAAAGUGGCUGUGGCUAGACAGCC, 0.08.
For the variant GGCAGAACUCAACACAGCAUGGCAAAGUGGCUCUGCCUAGACUGCC, the self-cleavage worked out at 0.05.
The figure for GGCAGAACUCAACACAACGUGGCAAAGUGUCUGUGGCUAGACUUCC is 0.06; for GGCAGAACUCAACACAGCUUGGCAAAGCCCCUGUGGCUAAACUGUC it is 0.12; for GGCAGAACUCAACACACCGUGGCAAAUUGGCUGUUGCUAGACUGUC it is 0.1.
On to GGCAGAACUCAACACAGCGUGGCAAAGUGGCUGUGGUUAGACUGUC, for which the self-cleavage stood at 0.02.
Under GGCAGAACUCAACACAGCGUGGCAAAGUGGCUGUGGCUAAACUGUC stands 0.2; under GGCAGAACUCAACACAGCGUGGCAAAGUGGCUGUAGCCAGACUGCC, 0.21; under GGCAGAACUCAACACAGCGUGGCAAAGUGCCUGUGACUAGACUGCC, 0.38.
Under GGCAGAACUCAACACAGCGUGGCAAAGUAGCUGUGGCUAGGCUGCC stands 0.19; under GGCAGAACUCAACACAGCGUUGCAAAGUGGCUGCGGCUAGACUGCC, 0.07.
For the variant GGCAGAACUCAACACAGUGUGGCAAAGUGGCUGUAGCUAGAAUGCC, the self-cleavage was determined as 0.11.
The figure for GGCAGAACUCAACACAGCGUGGCAAAGUGGCUGUGACUAGAGUGCC is 0.17.
As for GGCAGAACUCAACACAGCGUGGCAAAAUGGCUGUGGCUAUACUGGC, the self-cleavage was found to be 0.12.
For GGCAGAACUCAACACAGUGUGGCAAAGUGGCUUUGGCUAGAUUACG, the self-cleavage is 0.04.
Under GGCAGAACUCAACACAGCGUGACAAAGUGGCUUUGGCUAGACUGCC stands 0.07; under GGCAGAACUCAACACAGCGUGGCAAAGUGGCUGUGGAUAGACUGCU, 0.06; under GGCAGAACUCAACACACCGUGGCAAAGUCGCUGUGGCUAGACUGCC, 0.06.
Under GGCAGAACUCAACACAGCGUGGCAAAGUGGCUCUGGCUAGUGUGCC stands 0.06; under GGCAGAACUCAACACACCGUGUCAAAGUGGCUGUGGCUAGACUGCU, 0.19.
Under GGCAGAACUCAACACAGCGUGGCAAAGUGGCUAUGGAUAGACUGCC stands 0.04; under GGCAGAACUCAACACAGCGUGGGCAAGUGGCUAUCGCUAGACUUCC, 0.05; under GGCAGAACUCAACACAGCGUGGCAAAGUGUAUUUGGCUAGACUGCC, 0.64.
As for GGCAGAACUCAACACAGCGUGUCAAGGUGGCUCUGGCUAGACUGCC, the self-cleavage turned out to be 0.05.
Under GGCAGAACUCAACACAGCGUGGCAAAUUGGCUUUGGCUAGACUGCC stands 0.37; under GGCAGAACUCAACACAGCGUGGCAAAUUGGCUAUGGCUAGACUGCC, 0.07.
The figure for GGCAGAACUCAACACAACGUGGCAAACUGGCUGUGGCUAGACUGCC is 0.12.

Source of the values: the RNAGym collection of RNA variant scans (doi:10.7554/elife.90254).
